# Measurements taken from PubChem BioAssay AID741 (SRMLSC, 2007).
# This list was built around the results that the source calls inconclusive (neither active nor inactive); the mix of calls is not that of the screen. Activity calls are given as the source filed them. No stated cut-off is given here; in the data, active means toxicity enhancement factor above about 0.054; inconclusive means between about 0.00067 and that limit; inactive means weaker than that.
# Assay: MRP-overexpressing cell chemosensitization – dose response (AID 741)
# Settings: MRP-overexpressing cells, viability with/without cytotoxic drug; stronger effect = higher value
row,SMILES,toxicity enhancement factor
1,COC(=O)C1=COC(C)C2CN3CCc4c([nH]c5ccccc45)C3CC12 (stereo unspecified),inconclusive: 0.0083
2,O=C(CSc1nc2c(c(=O)n1-c1ccccc1)SCC2)N1CCN(c2ccccc2)CC1,inconclusive: 0.0342
3,Cc1cc(-c2ccco2)n(-c2ccccc2)n1,inconclusive: 0.0005
4,C=CCSc1nnc2n(CCc3ccccc3)c(=O)c3c4c(sc3n12)COC(C)(C)C4,active: 0.116
5,Cc1cc(NC(=O)CCC(=O)N(c2ccccc2)C(C(=O)NC2CCCCC2)c2cccs2)no1 (stereo unspecified),inconclusive: 0.0031
6,Cc1ccc(/C=N/Nc2nc(Cl)c(Cl)cc2Cl)s1,inactive: -0.0006
7,CCOC(=O)Nc1sc(C(=O)N(C)C)c(C)c1C(=O)OCC,inconclusive: 0.0073
8,CC1CN(c2nc3c(c(=O)[nH]c(=O)n3C)n2Cc2ccccc2F)CC(C)O1 (stereo unspecified),inconclusive: 0.0106
9,Cc1ccc2oc(=O)c3cnn(CC(=O)N4CCCCC4C)c3c2c1 (stereo unspecified),inconclusive: 0.0153
10,Cc1cc(C)cc(OCc2nnc(SCC(=O)c3ccc(Br)cc3)o2)c1,inactive: -0.0094
11,COC(=O)Nc1ccc(S(=O)(=O)Nc2cccc3ccccc23)cc1,inactive: -0.0003
12,COc1ccc(N2C(=O)C(Cl)=C(N3CCCC3)C2=O)cc1,inactive: -0.0016
13,CC1(C)CC(=O)C2=C(C1)N(c1cccc(O)c1)C1=C(C2)C(=O)CC(C)(C)C1,active: 0.0743
14,c1cnc2ccc(C(c3nnnn3C3CCCC3)N3CCN(c4nc5ccccc5s4)CC3)cc2c1 (stereo unspecified),inconclusive: 0.0404
15,CCOC(=O)N1CCN(C(=O)CSc2nc3c(c(=O)n2-c2ccccc2OC)SCC3)CC1,inconclusive: 0.0172
16,O=C(O)c1ccccc1O,inactive: -0.0072
17,Cc1ccc(C)c(Cn2nnc3c(=O)[nH]c(C4CCCN(C(=O)C5CCCCC5)C4)nc32)c1 (stereo unspecified),inconclusive: 0.0255
18,COc1ccc(-n2c(SCC(=O)N3CCN(c4ccccc4)CC3)nc3c(c2=O)SCC3)cc1,inconclusive: 0.0275

row,SMILES,toxicity enhancement factor
1,CC(C)CC1NC2(C(=O)N(C)c3ccccc32)C2C(=O)N(C(C)C)C(=O)C12 (stereo unspecified),inconclusive: 0.0039
2,COc1ccc2cc(C(c3nnnn3C(C)(C)C)N3CCc4ccccc4C3)c(=O)[nH]c2c1 (stereo unspecified),inactive: -0.0045
3,O=c1[nH]c2ccc(Br)cc2c(-c2ccccc2)c1N1CCOCC1,active: 0.0679
4,N#CC1=C(N)N(c2ccc(Br)cc2)C2=C(C(=O)CCC2)C1c1cccnc1 (stereo unspecified),inconclusive: 0.0129
5,Cc1cccc(Nc2ccccc2C(=O)O)c1C,inconclusive: 0.0134
6,CCOc1ccccc1Nc1nc(N)nc(CN(C)C2CCCCC2)n1,inactive: -0.0012
7,COc1ccc(N2C(N)=C(C#N)C(c3cccnc3)C3=C2CC(C)(C)CC3=O)cc1 (stereo unspecified),active: 0.0615
8,CCOC(=O)c1c(NC(=O)CSc2nnc(-c3ccccc3)n2CC)sc(C(C)=O)c1C,inconclusive: 0.0271
9,CCCc1cc(Nc2c(C)n(C)n(-c3ccccc3)c2=O)n2c(nc3ccccc32)c1C#N,active: 0.0896
10,c1ccc2sc(N3CN(CCN4CCOCC4)CN(c4nc5ccccc5s4)C3)nc2c1,inactive: -0.0158
11,O=C(Cc1cccs1)N1CCC(c2nc3c(nnn3Cc3ccccc3Cl)c(=O)[nH]2)CC1,inactive: -0.0052
12,Cc1cc(=O)oc2cc(OCc3ccc(S(=O)(=O)N4CCOCC4)cc3)ccc12,inconclusive: 0.0053
13,CN1CCc2c(sc3c2c(=O)n(-c2ccccc2)c2nnc(SCc4ccc(F)cc4)n32)C1,inconclusive: 0.0232
14,Cc1ccc(N=C(NOC(=O)c2ccccc2)c2nonc2N)c(C)c1,inconclusive: 0.0001
15,CCCNC(=O)c1cc(-c2ccco2)on1,inconclusive: 0.0314
16,COc1cc(C(=O)Nc2nc3ccccc3[nH]2)cc(OC)c1OC,inconclusive: 0.0083
17,CCN(C(=O)c1cn(C)c(=O)c2cc(OC)c(OC)cc12)c1cc(OC)ccc1OC,active: 0.129
18,O=C(COc1ccccc1)N1CCN(c2ncnc3c2cnn3-c2ccccc2)CC1,inactive: -0.0084
